Legend:
PD-1-hIgGFc antigen [1] = biological target: T1, PD-1-hIgGFc antigen (human, UniProt Q15116 part only, limits assumed); assay: competitive ELISA, PD-1-hIgGFc coated, competitor PDL2-his tag 0.5 µg/ml
T1 construct: not shown: human IgG Fc (hIgGFc)
Experimental: A 96-well ELISA plate was coated with PD-1-hIgGFc antigen in a concentration of 1.0 μg/ml (100 μl per well) by incubation at 4° C. overnight.
After the 96-well ELISA plate was washed with the PBST buffer for five times and gently patted to dryness, HRP-conjugated monoclonal mouse anti-his tag as a secondary antibody in 1:750 dilution (50 μl per well) was added for incubation at 37° C. for 1 hour.

PD-1-his antigen = biological target: T2, PD-1-his antigen (UniProt Q15116 part only, limits assumed); assay: ELISA, PD-1-his coated at 0.25 µg/ml
PD-1-his antigen, sequence (Q15116 25-167 limits assumed): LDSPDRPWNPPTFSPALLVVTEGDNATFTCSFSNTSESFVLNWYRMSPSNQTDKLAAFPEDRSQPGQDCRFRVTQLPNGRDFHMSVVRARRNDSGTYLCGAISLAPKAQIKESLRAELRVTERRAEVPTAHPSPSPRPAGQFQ
T2 construct: not shown: his tag
Experimental: An ELISA plate was coated with PD-1-his antigen in a concentration of 0.25 μg/ml (100 μl per well) by incubation at 4° C. overnight.
The ELISA plate coated with the PD-1-his antigen was blocked with 1% BSA in the PBS buffer at 37° C. for 2 hours and washed with 1×PBST buffer containing 1% Tween-20 for three times, with gently patting to dryness.

PD-1-hIgGFc antigen [2] = biological target: T1, PD-1-hIgGFc antigen; assay: competitive ELISA, PD-1-hIgGFc coated, competitor PDL1-mIgG2aFc 0.3 µg/ml
T1 sequence (Q15116 25-167 limits assumed): as above
Experimental: A 96-well ELISA plate was coated with PD-1-hIgGFc antigen in a concentration of 0.5 μg/ml (50 μl per well) by incubation at 4° C. overnight.

- EC50 (PD-1-hIgGFc antigen [1]): 1.58 nM
- EC50 (PD-1-his antigen): 0.05 nM
- EC50 (PD-1-hIgGFc antigen [2]): 0.783 nM
B1: humanized H2L2 antibody (IgG-like antibody against PD-1, wild-type) (antibody)
heavy: EVQLVQSGGGLVQPGGSLKLSCAASGFTFSSYGMSWVRQAPGKGLDWVATISGGGRDTYYPDSVKGRFTISRDNSKNNLYLQMNSLRAEDTALYYCARQKGEAWFAYWGQGTLVTVSSASTKGPSVFPLAPCSRSTSESTAALGCLVKDYFPEPVTVSWNSGALTSGVHTFPAVLQSSGLYSLSSVVTVPSSSLGTKTYTCNVDHKPSNTKVDKRV[left out - human IgG4 Fc with S228P (EU numbers)]
light: DIVLTQSPASLAVSPGQRATITCRASESVDNYGISFMNWFQQKPGQPPKLLIYAASNKGTGVPARFSGSGSGTDFTLNINPMEENDTAMYFCQQSKEVPWTFGGGTKLEIKRTVAAPSVFIFPPSDEQLKSGTASVVCLLNNFYPREAKVQWKVDNALQSGNSQESVTEQDSKDSTYSLSSTLTLSKADYEKHKVYACEVTHQGLSSPVTKSFNRGEC
notes: also called 18A10 H2L2; wild-type H2L2

From patent publication US20190330313A1 (HANX BIOPHARMACEUTICS, published 2019)
